# Test results from PubChem BioAssay AID1347073 (National Center for Advancing Translational Sciences (NCATS), 2019).
# Among all 45,000 compounds or so, about 200 (0.44%) were called active. About 7% were inconclusive and are not listed. The call rests on the fitted dose curve; in most records, active means well fitted activation curve with a large enough effect; inconclusive means small, poorly fitted or top-dose-only effect; inactive means no such curve, though single readings can be large or run the other way. Some of the results follow.
# Experiment: qHTS of TDP-43 Inhibitors: NCGC Sytravon Library Screen; further: 0% is about no effect; nearly all actives have a fitted effect of over 55% in size
# Conditions: yeast TDP-43 toxicity rescue, BacTiter-Glo growth, 24 h; series mostly up to 46.1 µM; growth rescue (activation): at the top concentration
# Method in brief: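 TDP-43-expressing yeast, pregrown in raffinose, seeded at OD600 0.02 in galactose medium with compound for 24 hr at 30 deg C. Growth read by BacTiter-Glo luminescence, so rescue of toxicity appears as activation.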
row,Structure (SMILES),growth rescue (activation)
1,O=C(CSc1nnc(-c2ccco2)o1)NC(=O)C1COc2ccccc2O1 (stereo not drawn),inactive: -10.2%
2,Cn1ccsc1=NC(=O)c1cccc(C#N)c1,inactive: 13%
3,CCC(=O)N1CCc2cc(S(=O)(=O)N(CC)c3cccc(C)c3)ccc21,inactive: 17.2%
4,COc1ccc2cc(C3c4cc(OC)c(OC)cc4CCN3C(=O)c3ccco3)c(=O)[nH]c2c1 (stereo not drawn),inactive: -16.6%
5,CCN(CC)S(=O)(=O)c1ccc2c(c1)N(CC(=O)NCC(C)c1ccccc1)C(=O)CO2 (stereo not drawn),inactive: 4.97%
6,COc1ccc(C(=O)N2CCCCC2c2cc(C(=O)Nc3ccc(F)c(Cl)c3)no2)cc1 (stereo not drawn),inactive: 26.8%
7,CCOC(=O)/C=C/C(=O)N1CCN(C(=O)/C=C/C(=O)OCC)CC1,inactive: 6.53%
8,CCOc1cccc(/C=C/c2ccc3cccc(O)c3n2)c1OC,inactive: 19.2%
9,CCN(CC)C(=O)c1sc(NC(=O)c2ccncc2)c(C(=O)OC)c1C,inactive: 10.4%
10,O=C(COC(=O)Cn1cnc2ccccc2c1=O)NCC12CC3CC(CC(C3)C1)C2,inactive: -1.15%
11,Cc1cc(C)c(NC(=O)C(C)(C)C)c(Cl)c1,inactive: -10.6%
12,CCOC(=O)C1C(c2ccccc2)N(C)OC1(O)C(F)(F)F (stereo not drawn),inactive: -0.681%
13,Cc1cc[n+](-c2[nH]c(=O)sc2/C=N/N=C(\[O-])CCn2c3ccccc3c3ccccc32)cc1,inactive: 17.9%
14,O=C(CSc1nc2ncc(Cl)cc2[nH]1)N1CCOCC1,inactive: 10.8%
15,O=C(NNC(=S)Nc1ccc(Cl)cc1Cl)c1ccncc1,inactive: 17.7%
16,CN(CCC#N)C(=O)COC(=O)c1ccc(CNS(=O)(=O)c2ccc(F)c(Cl)c2)cc1,inactive: 10.1%
17,O=C(OCC(=O)N1CCCC1)c1cc(Cl)ccc1Cl,inactive: 8.48%
18,Fc1ccc(-c2cc(-c3ccccc3)nc(-n3cccn3)n2)cc1,inactive: 12%
19,Cc1ccc(CNC(=O)COC(=O)Cn2nc(C)c([N+](=O)[O-])c2C)cc1,inactive: 7.02%
20,O=C(Cn1cc(C(F)(F)F)ccc1=O)Nc1ccccc1,inactive: 24.7%
21,O=C(COC(=O)/C=C/c1cccc(F)c1)Nc1ccccc1,inactive: -4.85%
22,CCc1ccc(N(C(C)=O)c2nc(CCl)cs2)cc1,inactive: 12.7%
23,CC1CCCN(C(=O)C2CCN(CCCc3ccccc3)CC2)C1 (stereo not drawn),inactive: 11.7%

row,Structure (SMILES),growth rescue (activation)
1,COc1ccc(-n2nnnc2SCC(=O)NNC(=O)c2ccc([N+](=O)[O-])cc2)cc1,inactive: -25.2%
2,O=C(COC(=O)c1cncc(Br)c1)NC1CCCCCC1,inactive: 9.82%
3,CC1=C(C(=O)OCC2CCCO2)C(c2ccsc2)C2=C(CC(C)(C)CC2=O)N1 (stereo not drawn),inactive: 4.67%
4,COCCNC(=S)N1CCN(c2nc(-c3cccc(OC)c3)cs2)CC1,inactive: 24.7%
5,CCOCCn1c(CN2CCN(C(c3ccccc3)c3ccccc3)CC2)nc2c1c(=O)n(C)c(=O)n2C,inactive: -2.76%
6,COc1ccccc1NS(=O)(=O)c1ccc(NC(=O)N2CCCCC2)cc1,inactive: 9.47%
7,O=C(NC1CCN(C(=O)Nc2ccc(F)cc2)CC1)c1cccc(F)c1,inactive: 3.76%
8,Cc1ccc(S(=O)(=O)/N=C(\Nc2cccc(C)c2)Nc2nc(C)cc(C)n2)cc1,inactive: -1.39%
9,Cc1sc2ncnc(NCC(O)c3ccccc3)c2c1C (stereo not drawn),inactive: 25.4%
10,COC(=O)CC(c1ccc(F)cc1)n1c(C)ccc1C (stereo not drawn),inactive: 22.1%
11,COc1ccc(/C=C/C(=O)OCC(=O)Nc2cccc(S(=O)(=O)NC3=NCCCCC3)c2)cc1,inactive: -15.5%
12,O=C(CN1CCN(S(=O)(=O)c2ccc(F)cc2)CC1)Nc1ccccc1C(=O)NC1CC1,inactive: 18.5%
13,O=C(N/C(=C/c1cccnc1)C(=O)N1CCOCC1)c1ccccc1Cl,inactive: -4.57%
14,Cn1cc(CN2CCC(C(O)c3cccs3)CC2)c(-c2cccc(Cl)c2)n1 (stereo not drawn),inactive: 19.8%
15,O=C(COC(=O)c1ccc(S(=O)(=O)N2CCCC2)cc1)NCc1cccs1,inactive: -15.3%
16,COc1ccc(Cl)cc1C(=O)Nc1ccc(S(N)(=O)=O)cc1,inactive: -3.47%
17,COc1cc(CNc2ncnc3c2ncn3[C@H]2CN(Cc3cccs3)C[C@@H](CO)O2)cc(OC)c1OC,inactive: 17.8%
18,Cn1nc(C(=O)Nc2ccc(-n3cnnn3)cc2)c2ccccc2c1=O,inactive: 1.35%
19,CCCC(C(=O)NNC(=O)c1cc(C)oc1C)c1ccccc1 (stereo not drawn),inactive: 17%
20,CN(Cc1ccccc1)C(=O)CCc1ccccc1,inactive: 42.7%
21,Oc1c(Br)cc(C=Nc2ccc3nc(-c4ccccc4)[nH]c3c2)c(O)c1Br,inactive: 1.7%
22,Fc1cccc(Cc2noc(CN3CCSCC3)n2)c1,inactive: 10.7%
23,O=C(Nc1ccc(Cl)c(S(=O)(=O)N2CCOCC2)c1)c1ccccn1,inactive: 5.23%

row,Structure (SMILES),growth rescue (activation)
1,O=C(Nc1ccc(Br)cc1)c1cc(-c2cccs2)on1,inactive: -5.03%
2,O=C(O)c1cc(-c2ccc(N3CCOCC3)cc2)nn1-c1ccccc1Cl,inactive: -19.3%
3,CC1(C(=O)NS(=O)(=O)c2ccc(Cl)s2)CCN1C(=O)C1(c2ccccc2)CCCC1 (stereo not drawn),inactive: -8.4%
4,CC(C)c1ccc(NC(=O)COc2ccccn2)cc1,inactive: -12%
5,COc1ccc2[nH]c(=O)c(CNc3ccc(C)cc3C)cc2c1,inactive: -10.1%
6,Cc1ccc(NC(=O)CCNC(=O)c2ccccc2)cc1F,inactive: -10.9%
7,CCOc1cc(/C=C2\COc3ccccc3C2=O)ccc1OCC(=O)N(C)C,inactive: 17.4%
8,CCOc1ccc(C(=O)Nc2ccc(-c3nc4ccccc4[nH]3)cc2)cc1[N+](=O)[O-],inactive: 5.92%
9,COc1ccc(OC)c(NC(=O)CSc2nnnn2-c2ccccc2F)c1,inactive: 5.68%
10,Cc1ccc(C)c(NC(=O)C(Sc2nc3ccc(C)cc3[nH]2)c2ccccc2)c1 (stereo not drawn),inactive: 19.5%
11,COc1ccccc1CN1CC(C(=O)NCCn2nc(C)cc2C)CCC1=O (stereo not drawn),inactive: 6.43%
12,O=C(NNC(=O)c1cc2ccccc2o1)c1ccc(F)cc1,inactive: -16.7%
13,Nc1cc(=O)[nH]c(SCCSc2ccccc2F)n1,inactive: -1.6%
14,COc1ccc(N2CC(C(=O)N3CCN(c4ccccc4F)CC3)CC2=O)cc1 (stereo not drawn),inactive: 15.7%
15,CCOc1ccc(C(=O)NC(=S)NCc2cccnc2)cc1,inactive: 6.1%
16,COC(=O)c1ccccc1NC(=O)COc1ccc2c(c1)OCO2,inactive: 24.6%
17,CC1(C)Cc2[nH]c(=O)c(C#N)cc2CS1,inactive: 12.8%
18,CCn1c(SCC(=O)NC2CCCCC2)nnc1C(C)NC(=O)c1ccccc1F (stereo not drawn),inactive: -19.4%
19,COc1cccc(/C=C/C(=O)NNC(=O)c2ccccc2)c1OC,inactive: 12.5%
20,O=C(/C=C1\NC2(CCCC2)Cc2ccccc21)N1CCOCC1,inactive: 3.4%
21,COc1cc(/C=C2\SC(=O)NC2=O)ccc1OCC(=O)N1CCOCC1,inactive: 20%
22,COc1ccc(C)cc1NC(=O)C1CCN(S(=O)(=O)c2cccc3nonc23)CC1,inactive: -1.22%
